These results are taken from PubChem BioAssay AID1347073 (National Center for Advancing Translational Sciences (NCATS), 2019).

In all, about 45,000 compounds went through this assay and about 200 (0.44%) were called active. Inconclusive results (about 7%) are left out. Calls follow the shape of the dose curve; as a rule, active = well fitted activation curve with a large enough effect; inconclusive = small, poorly fitted or top-dose-only effect; inactive = no such curve, though single readings can be large or run the other way. The list shows a part of the results.

This assay is described as follows: qHTS of TDP-43 Inhibitors: NCGC Sytravon Library Screen. Also: 0% is about no effect; nearly all actives have a fitted effect of over 55% in size. The note with it: yeast TDP-43 toxicity rescue, BacTiter-Glo growth, 24 h; series mostly up to 46.1 µM; growth rescue (activation): at the top concentration. The method, boiled down: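 TDP-43-expressing yeast, pregrown in raffinose, seeded at OD600 0.02 in galactose medium with compound for 24 hr at 30 deg C. Growth read by BacTiter-Glo luminescence, so rescue of toxicity appears as activation.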
In general terms: qHTS replaces the single test concentration by a dilution series.
With `Cc1c(C(=O)Nc2ccc3c(c2)OCCO3)cnn1C`, the “growth rescue (activation)” value is inactive: 9.42%.

Consider `CN(C(=O)CSc1nc(N)c2c3c(sc2n1)CSC(C)(C)C3)c1ccccc1`, for which the “growth rescue (activation)” value is inactive: 17.2%.

`O=C(CSc1nnc(-c2ccc(F)cc2)c2ccccc12)Nc1ccccc1`: the “growth rescue (activation)” value was inactive: 26.6%. With `COc1ccccc1CN(C)C(=O)CN1C(=O)c2ccccc2C1=O` the figure was inactive: 9.5%.

As to `COc1ccc(C2c3[nH]c4ccccc4c3CCN2CCCn2cccn2)cc1C` (stereo not drawn), the “growth rescue (activation)” value was inactive: -4.71%. With `O=C(Nc1ccc(F)cc1)c1cccc(N2C(=O)c3ccccc3C2=O)c1` the figure was inactive: 14%; with `CCc1nnc(NC(=O)C2CC(=O)N(CCc3ccc(F)cc3)C2)s1` (stereo not drawn), inactive: -11.8%. With `CCCCOC(=O)c1ccc(NS(=O)(=O)c2cc(-c3nnnn3CC)ccc2OC)cc1` the figure was inactive: 13%. Consider `CC(C)(C)C1CCC(=NNC(=O)CN(c2ccccc2)S(=O)(=O)c2ccccc2[N+](=O)[O-])CC1` (stereo not drawn), for which the “growth rescue (activation)” value was inactive: 8.49%.

For the molecule `O=C(O)c1ccc2c(=O)n3c(nc2c1)/C(=C/c1ccc(OC(F)F)cc1OC(F)F)CC3`, the “growth rescue (activation)” value is inactive: -0.88%. To `COc1ccc(-c2nnc3n2-c2ccccc2SC3)cc1OC` belongs inactive: 2.94%. Regarding `COc1ccc(OC)c(NC(=O)COC(=O)CCc2nc3ccccc3c(=O)[nH]2)c1`, the “growth rescue (activation)” value is inactive: -3.96%. With `Cc1ccc(N(C(=O)c2snc(C(N)=O)c2N)C(C(=O)NCc2ccccc2)c2ccncc2)c(C)c1` (stereo not drawn) the figure was inactive: 3.41%; with `CCn1nccc1NC(=O)c1ccc2sc([C@@H]3O[C@H](CO)[C@H](O)[C@H](O)[C@H]3O)nc2c1`, inactive: -7.3%; with `CSCC[C@H](NC(=O)NCc1ccc(F)cc1)C(=O)O`, inactive: 10.3%. To `Cc1ccc(-n2c(SCC(=O)Nc3ccc(C(=O)O)cc3)nnc2-c2ccncc2)cc1` belongs inactive: 4.6%; to `CC12CCC(C(=O)NNc3ccc([N+](=O)[O-])cc3)(OC1=O)C2(C)C` (stereo not drawn), inactive: -13%; to `CC(C)N(CCc1ccncc1)C(=S)Nc1ccc(F)c(Cl)c1`, inactive: 23%. To `CCNC(=O)C1(C)CCCN(Cc2csc3ccccc23)C1` (stereo not drawn) belongs inactive: 5.56%; to `N#CC(C#N)=c1ccc2c(c1)N1C(c3ccccc3)=CC(c3ccccc3)C3CCCCC31N=2` (stereo not drawn), inactive: 2.82%; to `C/C(=N\S(=O)(=O)c1ccc(C)cc1)N1CCCCC1`, inactive: -15%. Turning to `CCOc1ccccc1N(C(=O)Nc1cccc(Cl)c1)C1=NC(C)CS1` (stereo not drawn), the “growth rescue (activation)” value was inactive: 18.6%. With `C=CCOc1ccc(C=Nc2ccc(OC)cc2)c(O)c1`, the “growth rescue (activation)” value is inactive: 0.805%. To `O=C(Cc1ccccc1[N+](=O)[O-])Nc1ccccc1C(=O)N1CCCC1` belongs inactive: -0.571%. Take `COc1cccc(CNC(=O)Cc2csc3ccccc23)c1OC`: the “growth rescue (activation)” value was inactive: -1.93%. With `O=C(NNC(=O)c1ccncc1)Nc1ccccc1`, the “growth rescue (activation)” value is inactive: 3.72%. `CCOC(=O)c1cc(C#N)c(N2CCN(C)CC2)nc1-c1ccccc1`: the “growth rescue (activation)” value was inactive: -4.48%. With `COCCN(CCOC)C(=S)Nc1ccccc1` the figure was inactive: -1.81%; with `O=C(CSc1nnnn1C1CCCCC1)N1CCN(C(=O)c2ccco2)CC1`, inactive: -11.3%; with `CC1CCCCC12NC(=O)N(CC(=O)Nc1nccs1)C2=O` (stereo not drawn), inactive: 5.3%. With `NS(=O)(=O)c1cccc(NC(=O)CC2(CC(=O)O)CCCC2)c1` the figure was inactive: 12.8%; with `O=C(Cn1cc([N+](=O)[O-])ccc1=O)N1CCc2ccccc21`, inactive: -35.6%; with `COCCSc1nnc(NC(=O)Cc2ccc(OC)cc2)s1`, inactive: -1%. With `O=C(CCC1CCCN(C(=O)C2=CCCC2)C1)N1CCN(c2ccccn2)CC1` (stereo not drawn) the figure was inactive: 12.9%; with `CCc1cccc(C)c1NC(=O)CCCSc1nc2ccccc2s1`, inactive: -1.76%; with `COc1cccc(OC)c1NC(=O)CN(C)S(=O)(=O)c1ccc2c(c1)OCCO2`, inactive: 19.7%. Turning to `COc1ccc(S(=O)(=O)N2CC(C)N(S(=O)(=O)c3ccc(OC)cc3)CC2C)cc1` (stereo not drawn), the “growth rescue (activation)” value is inactive: -7.24%. On to `Cc1ccc(S(=O)(=O)N2CCCCCC2)cc1C(=O)NCc1ccccn1`, for which the “growth rescue (activation)” value was inactive: 1.72%. For the molecule `COc1cccc(CNC(=O)CCNS(=O)(=O)c2cccc3nonc23)c1`, the “growth rescue (activation)” value was inactive: 14.8%.

For the molecule `CN(Cc1ccc(-n2cccn2)cc1)Cc1cn(C)nc1-c1ccccc1F`, the “growth rescue (activation)” value was inactive: 15.3%. As for `O=C(NCCCNC(=O)c1ccccn1)c1ccc(F)cc1`, the “growth rescue (activation)” value is inactive: -7.26%. To `Cc1noc(C)c1CSc1ncnc2sc(C)c(C)c12` belongs inactive: 18.7%; to `CN(C)c1cc2c(cc1NS(=O)(=O)c1ccccc1)n(C)c(=O)n2C`, inactive: 4.62%; to `CN1/C(=C\C(=O)Nc2ccc(Cl)cc2)C(C)(C)c2ccccc21`, inactive: 5.8%. With `O=S(=O)(NCc1cc(-c2ccccc2)no1)c1ccccc1Cl` the figure was inactive: 13.4%; with `OC(COc1ccc2c(c1)OCO2)CN1CCN(c2ccccc2)CC1` (stereo not drawn), inactive: 2.21%; with `COc1ccc(C(=O)NC(=S)Nc2ccc(S(=O)(=O)Nc3cc(OC)nc(OC)n3)cc2)cc1`, inactive: -0.373%. To `COc1ccc(-c2nn(-c3ccccc3)cc2CN2CCCO2)c(F)c1` belongs inactive: 9.49%; to `Cc1ccc(C)c(OCC(=O)O/N=C(\N)c2cccnc2)c1`, inactive: 35.1%; to `CCC(C)NC(=O)c1[nH]c(C)c(C(=O)OC)c1C` (stereo not drawn), inactive: 25.8%. On to `COc1cc(NS(=O)(=O)c2ccc(NC(=O)Cc3ccccc3)cc2)nc(OC)n1`, for which the “growth rescue (activation)” value is inactive: 6%. Regarding `Fc1cccc(C2CCCCN2Cc2nc(C3CC3)no2)c1` (stereo not drawn), the “growth rescue (activation)” value was inactive: 12.9%. To `O=C(Cn1ncn2cccc2c1=O)N1CCCCC1` belongs inactive: 23.2%; to `CCOc1ccc(NC(=S)N2CCC(NC(=O)c3ccco3)CC2)cc1`, inactive: 13%. With `O=C(Nc1ccc(N2CCN(C(=O)c3cccs3)CC2)cc1)c1ccccc1F` the figure was inactive: 7.67%. With `O=C(CNC(=O)c1ccc2c(c1)OCO2)NCc1cccs1` the figure was inactive: 2.92%; with `Cn1c(SCC2CCCO2)nnc1-c1ccc([N+](=O)[O-])cc1` (stereo not drawn), inactive: 5.46%; with `Cc1ccc(C)c(NC(=O)c2c(Cl)nc3ccccn23)c1`, inactive: 12.9%. Regarding `COc1ccc(OCC(O)CN(C)C(=O)/C=C/c2cccc([N+](=O)[O-])c2)cc1` (stereo not drawn), the “growth rescue (activation)” value was inactive: 5.97%. With `CCOc1ccccc1N1CCN(C(=O)c2csc(C)c2CC)CC1` the figure was inactive: 27.7%; with `Cc1noc(C)c1C(=O)N1CCC1(C)C(=O)NS(=O)(=O)c1ccc(F)cc1F` (stereo not drawn), inactive: 10.4%. Regarding `O=C(CSc1nc(O)cc(=O)n1-c1ccccc1)Nc1ccc(Br)cn1`, the “growth rescue (activation)” value was inactive: -2.36%. With `COc1ccc(CNC(=O)C2CCCN(S(=O)(=O)c3ccc(-n4cnnn4)cc3)C2)cc1` (stereo not drawn) the figure was inactive: 8.33%. `COc1cc(/C=N/NC(=O)C(N)=O)ccc1OC(=O)c1cccs1`: the “growth rescue (activation)” value is inactive: -9.13%. With `Cc1cc(C)nc(NS(=O)(=O)c2ccc(NC(=O)c3ccc(S(=O)(=O)N4CC(C)OC(C)C4)cc3)cc2)n1` (stereo not drawn) the figure was inactive: 4.53%. In the case of `COc1cc2c(cc1OC)C(c1ccccc1C)CC(=O)N2` (stereo not drawn), the “growth rescue (activation)” value was inactive: 3.53%. To `CS(=O)(=O)c1cccc(NC(=O)C2CCCN2S(=O)(=O)c2ccc(F)cc2)c1` (stereo not drawn) belongs inactive: 8.55%. With `CCOC(=O)C1(C)CCCN(C(=O)c2c(F)ccc(C)c2F)C1` (stereo not drawn) the figure was inactive: 16.6%. Turning to `C/C(=N\NC(=O)c1nnn(-c2nonc2N)c1C(C)C)c1ccncc1`, the “growth rescue (activation)” value is inactive: -2.15%. With `COc1ccc(NC(=O)C/C(C)=N/NC(=O)C(=O)NC(C)C)c(OC)c1` the figure was inactive: -1.52%; with `O=C(Nc1cc(S(=O)(=O)N2CCCC2)ccc1Cl)c1cc(F)c(F)c(F)c1F`, inactive: 1.11%; with `O=C(COC(=O)c1ccccn1)NCCc1ccc(Cl)cc1`, inactive: 6.53%. Consider `CN(Cc1cn(C)nc1-c1cccc(Cl)c1)CC1CCCCO1` (stereo not drawn), for which the “growth rescue (activation)” value was inactive: 7.97%. To `C=CCc1ccc(OCCOCCNCCCC)c(OC)c1` belongs inactive: -37%; to `O=C1[C@@H]2Cc3c([nH]c4ccccc34)C(c3ccccc3)N2C(=O)CN1C1CC1` (stereo partly drawn), inactive: -9.08%. To `CC1(CCc2ccccc2)NC(=S)N(c2ccccc2)N1` (stereo not drawn) belongs inactive: 12.1%; to `COCC1CCCCN1C(=O)c1ccc2oc(CCc3ccccc3)nc2c1` (stereo not drawn), inactive: -9.74%; to `Cc1csc(SCC(=O)Nc2cc(C(N)=O)cc(C(N)=O)c2)n1`, inactive: -4.94%. For `COc1ccccc1CNc1nc(Nc2ccc(C)cc2C)c2sccc2n1`, the “growth rescue (activation)” value was inactive: -1.94%. To `COc1ccc(NC(=O)COC(=O)c2ccncc2)c(OC)c1` belongs inactive: 2.84%; to `COc1ccc(-n2c(C)cc(/C=C3\SC(=S)N(Cc4ccco4)C3=O)c2C)cc1`, inactive: 23.3%; to `CC(SCC(=O)Nc1ccccc1Br)c1nc2ccccc2c(=O)[nH]1` (stereo not drawn), inactive: 3.11%.

In the case of `O=C(Nc1ccc(Br)cc1)c1cccc(-n2cnnn2)c1`, the “growth rescue (activation)” value is inactive: 4.45%. To `Cc1cc(-c2ccc(C(C)C)c(S(=O)(=O)N3CCN(c4ccccc4)CC3)c2)on1` belongs inactive: 1.97%; to `COCCNC(=O)Cn1cc(C(=S)N2CCOCC2)c2ccccc21`, inactive: 6.11%. For `Cc1csc(=O)n1CCC(=O)OC(C)C(=O)NCc1ccccc1` (stereo not drawn), the “growth rescue (activation)” value is inactive: -2.16%. To `CC1=C([N+](=O)[O-])C(c2ccc(Cl)cc2)NC(=O)N1C` (stereo not drawn) belongs inactive: 0.946%; to `O=C(O)Cn1c(=O)c2c(c3ccccc31)CCC2`, inactive: 7.8%. To `O=[N+]([O-])c1cccc(S(=O)(=O)c2ccc(NCCOCCO)c([N+](=O)[O-])c2)c1` belongs inactive: 5.26%. With `COc1ccc(CCNC(=O)c2ccc3c(c2)OCO3)cc1` the figure was inactive: 12.1%; with `NC(=O)C1CCN(C(=O)c2ccc([N+](=O)[O-])cc2NC(=O)c2cccs2)CC1`, inactive: -8.32%; with `Cc1noc(C)c1COC(=O)/C=C/c1ccc(Cl)cc1`, inactive: 21.1%.

`O=C(NCc1ccc(F)cc1)C(c1ccccc1)N(C(=O)c1csnn1)C1CC1` (stereo not drawn): the “growth rescue (activation)” value was inactive: 7.3%. With `COc1cccc(NC(=O)Nc2cc(C)ccc2OC)c1` the figure was inactive: 5.65%; with `CCc1nc2ccc(C(=O)NC3CCN(Cc4ccccc4)CC3)cn2c1N(C)Cc1cccs1`, inactive: -4.8%; with `CCN(CC(=O)NC(C)C)C(=O)c1cc(S(=O)(=O)N2CCCCC2)ccc1N1CCCCC1`, inactive: 5.21%.

On to `O=C(NCCOc1ccccc1F)C1CC(=O)N(Cc2ccccc2)C1` (stereo not drawn), for which the “growth rescue (activation)” value was inactive: 13.9%. With `CCC(CC)NC(=O)/C=C/c1cccc([N+](=O)[O-])c1` the figure was inactive: -17.8%. With `O=c1c2[nH]c3ccc(F)cc3c2ncn1CC1CCCO1` (stereo not drawn) the figure was inactive: 6.63%. In the case of `CCC1CCCCN1S(=O)(=O)Cc1ccccc1Cl` (stereo not drawn), the “growth rescue (activation)” value is inactive: 42.6%. On to `CC(CN1CCCCC1)OC(=O)CCc1ccccc1` (stereo not drawn), for which the “growth rescue (activation)” value was inactive: 1.9%. To `O=C(CN1CCCN(Cc2ccc(F)cc2Cl)C1=O)NC1CCCC1` belongs inactive: -15.3%; to `CC(C)N(Cc1ccccc1)C(=O)COC(=O)c1ccc(S(=O)(=O)N2CCOCC2)cc1`, inactive: 14.2%; to `COc1cccc(NC(=O)Nc2cc(C(=O)O)ccc2C)c1`, inactive: -5.78%. For `O=C(CC1NCCc2ccccc21)Nc1cccc(Cl)c1` (stereo not drawn), the “growth rescue (activation)” value is inactive: -2.84%.

On to `O=c1c2nccnc2[nH]c(=S)n1Cc1ccccc1`, for which the “growth rescue (activation)” value was inactive: 4.17%.

Take `CCn1c(C)[n+](CC)c2ccc(C(=O)N(C)c3ccccc3)cc21`: the “growth rescue (activation)” value is inactive: 1.05%. Regarding `CC(C)CNC(=O)c1ccccc1NC(=O)CN(c1ccccc1)S(=O)(=O)N(C)C`, the “growth rescue (activation)” value was inactive: -1.1%.
